# Residue numbers refer to the chain shown, from its start. The list shows a part of the results.
# B1: GUAUGGU (DNA:RNA)
# RNA: GGGAGACCGGAAUUCAGAUUGUCCGUAUGGUUUAAAUCCCGUCGUAGCCACCA
# DNA 1: CAATCTGAATTCCGGTCTCCC
# DNA 2: TGGTGGCTACGACGGGATT
# B2: AUAUACA (DNA:RNA)
# RNA: B1 RNA with G25A, G29A, G30C, U31A
# DNA 1: CAATCTGAATTCCGGTCTCCC
# DNA 2: TGGTGGCTACGACGGGATT
# B3: UCUCGAA (DNA:RNA)
# RNA: B1 RNA with G25U, U26C, A27U, U28C, G30A, U31A
# DNA 1: CAATCTGAATTCCGGTCTCCC
# DNA 2: TGGTGGCTACGACGGGATT
# B4: CGGAGGU (DNA:RNA)
# RNA: B1 RNA with G25C, U26G, A27G, U28A
# DNA 1: CAATCTGAATTCCGGTCTCCC
# DNA 2: TGGTGGCTACGACGGGATT
# B5: UAAUUCC (DNA:RNA)
# RNA: B1 RNA with G25U, U26A, G29U, G30C, U31C
# DNA 1: CAATCTGAATTCCGGTCTCCC
# DNA 2: TGGTGGCTACGACGGGATT
# B6: GUUCCUC (DNA:RNA)
# RNA: B1 RNA with A27U, U28C, G29C, G30U, U31C
# DNA 1: CAATCTGAATTCCGGTCTCCC
# DNA 2: TGGTGGCTACGACGGGATT
# B7: CAAGACU (DNA:RNA)
# RNA: B1 RNA with G25C, U26A, U28G, G29A, G30C
# DNA 1: CAATCTGAATTCCGGTCTCCC
# DNA 2: TGGTGGCTACGACGGGATT
# B8: GCCGACC (DNA:RNA)
# RNA: B1 RNA with U26C, A27C, U28G, G29A, G30C, U31C
# DNA 1: CAATCTGAATTCCGGTCTCCC
# DNA 2: TGGTGGCTACGACGGGATT
# B9: UUCUUAU (DNA:RNA)
# RNA: B1 RNA with G25U, A27C, G29U, G30A
# DNA 1: CAATCTGAATTCCGGTCTCCC
# DNA 2: TGGTGGCTACGACGGGATT
# B10: GUAGGAU (DNA:RNA)
# RNA: B1 RNA with U28G, G30A
# DNA 1: CAATCTGAATTCCGGTCTCCC
# DNA 2: TGGTGGCTACGACGGGATT
# B11: CGGUUAA (DNA:RNA)
# RNA: B1 RNA with G25C, U26G, A27G, G29U, G30A, U31A
# DNA 1: CAATCTGAATTCCGGTCTCCC
# DNA 2: TGGTGGCTACGACGGGATT
# B12: AUUGAGA (DNA:RNA)
# RNA: B1 RNA with G25A, A27U, U28G, G29A, U31A
# DNA 1: CAATCTGAATTCCGGTCTCCC
# DNA 2: TGGTGGCTACGACGGGATT
# B13: CCAUGGU (DNA:RNA)
# RNA: B1 RNA with G25C, U26C
# DNA 1: CAATCTGAATTCCGGTCTCCC
# DNA 2: TGGTGGCTACGACGGGATT
# B14: UCAUGCA (DNA:RNA)
# RNA: B1 RNA with G25U, U26C, G30C, U31A
# DNA 1: CAATCTGAATTCCGGTCTCCC
# DNA 2: TGGTGGCTACGACGGGATT
# B15: AGCUUGG (DNA:RNA)
# RNA: B1 RNA with G25A, U26G, A27C, G29U, U31G
# DNA 1: CAATCTGAATTCCGGTCTCCC
# DNA 2: TGGTGGCTACGACGGGATT
# B16: UAGCCCU (DNA:RNA)
# RNA: B1 RNA with G25U, U26A, A27G, U28C, G29C, G30C
# DNA 1: CAATCTGAATTCCGGTCTCCC
# DNA 2: TGGTGGCTACGACGGGATT
# B17: AGAGGGG (DNA:RNA)
# RNA: B1 RNA with G25A, U26G, U28G, U31G
# DNA 1: CAATCTGAATTCCGGTCTCCC
# DNA 2: TGGTGGCTACGACGGGATT
# B18: CCUGCCG (DNA:RNA)
# RNA: GGGAGACCGGAAUUCAGAUUGUCCCCUGCCGUUAAAUCCCGUCGUAGCCACCA
# DNA 1: CAATCTGAATTCCGGTCTCCC
# DNA 2: TGGTGGCTACGACGGGATT
# B19: GCGUGCC (DNA:RNA)
# RNA: B1 RNA with U26C, A27G, G30C, U31C
# DNA 1: CAATCTGAATTCCGGTCTCCC
# DNA 2: TGGTGGCTACGACGGGATT
# B20: GUUCUCA (DNA:RNA)
# RNA: B18 RNA with C25G, C26U, G28C, C29U, G31A
# DNA 1: CAATCTGAATTCCGGTCTCCC
# DNA 2: TGGTGGCTACGACGGGATT
# Molecular target: T1, RBFOX1 RRM (Homo sapiens, UniProt Q9NWB1 109-208)
# T1 sequence: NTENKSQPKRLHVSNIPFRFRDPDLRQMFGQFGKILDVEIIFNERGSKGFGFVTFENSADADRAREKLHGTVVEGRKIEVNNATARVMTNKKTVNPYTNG
# Assay: EMSA; HiTS-Eq, 1 nM pool, 10 min; buffer printed only for the single-RNA assays: 10 mM Tris pH 7.5, 150 mM NaCl, 3.4 mM EDTA, 0.001% NP-40, 30 C
# Conditions: tags: His6 N-terminal (pET28a); label: 5' 32P
# Outline: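 Purified RbFox RRM, wild type or mutant, was incubated for 10 min in 50 µL with 1 nM of a 5′-radiolabelled RNA pool carrying 7 randomized nucleotides, whose flanks were annealed to DNA oligonucleotides, over a series of increasing protein concentrations. Unbound RNA was resolved on 8% native PAGE, cut out, reverse-transcribed, barcoded by PCR and sequenced on an Illumina HiSeq 2500. Relative association constants were derived from changes in read counts for each RNA species versus the control reaction and normalised to the cognate motif.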
row,Binder,binding signal
1,B1,0.0104 KA relative to UGCAUGU
2,B2,0.000317 KA relative to UGCAUGU
3,B3,0.0115 KA relative to UGCAUGU
4,B4,0.029 KA relative to UGCAUGU
5,B5,0.00451 KA relative to UGCAUGU
6,B6,0.0138 KA relative to UGCAUGU
7,B7,0.00609 KA relative to UGCAUGU
8,B8,0.0152 KA relative to UGCAUGU
9,B9,0.00377 KA relative to UGCAUGU
10,B10,0.00394 KA relative to UGCAUGU
11,B11,0.00507 KA relative to UGCAUGU
12,B12,0.00825 KA relative to UGCAUGU
13,B13,0.0122 KA relative to UGCAUGU
14,B14,0.0145 KA relative to UGCAUGU
15,B15,0.0184 KA relative to UGCAUGU
16,B16,0.00345 KA relative to UGCAUGU
17,B17,0.0111 KA relative to UGCAUGU
18,B18,0.01 KA relative to UGCAUGU
19,B19,0.0229 KA relative to UGCAUGU
20,B20,0.0092 KA relative to UGCAUGU

# — PMC9911399, “Two distinct binding modes provide the RNA-binding protein RbFox with extraordinary sequence specificity”
